Measurements: PubChem BioAssay AID588591 (National Center for Advancing Translational Sciences (NCATS), 2011)
The campaign covered roughly 390,000 compounds. About 4,700 (1.2%) were called active. The inconclusive results got no clear call from the source; some entries with a clear call stand among them for comparison. Calls follow the shape of the dose curve; as a rule, active = well fitted inhibition curve with a large enough effect; inconclusive = small, poorly fitted or top-dose-only effect, or another doubt; inactive = no such curve, though single readings can be large or run the other way. Potencies of inconclusive entries are doubtful fits and often do not repeat.

The compounds below were run against DNA polymerase eta (Homo sapiens) (UniProt Q9Y253) (assay: qHTS for Inhibitors of Polymerase Eta). Settings: recombinant Pol eta, fluorescent DNA replication assay; series mostly up to 114 µM; activity change, negative = inhibition: at the top concentration.
UniProt Q9Y253, sequence (Q9Y253 whole entry, looked up): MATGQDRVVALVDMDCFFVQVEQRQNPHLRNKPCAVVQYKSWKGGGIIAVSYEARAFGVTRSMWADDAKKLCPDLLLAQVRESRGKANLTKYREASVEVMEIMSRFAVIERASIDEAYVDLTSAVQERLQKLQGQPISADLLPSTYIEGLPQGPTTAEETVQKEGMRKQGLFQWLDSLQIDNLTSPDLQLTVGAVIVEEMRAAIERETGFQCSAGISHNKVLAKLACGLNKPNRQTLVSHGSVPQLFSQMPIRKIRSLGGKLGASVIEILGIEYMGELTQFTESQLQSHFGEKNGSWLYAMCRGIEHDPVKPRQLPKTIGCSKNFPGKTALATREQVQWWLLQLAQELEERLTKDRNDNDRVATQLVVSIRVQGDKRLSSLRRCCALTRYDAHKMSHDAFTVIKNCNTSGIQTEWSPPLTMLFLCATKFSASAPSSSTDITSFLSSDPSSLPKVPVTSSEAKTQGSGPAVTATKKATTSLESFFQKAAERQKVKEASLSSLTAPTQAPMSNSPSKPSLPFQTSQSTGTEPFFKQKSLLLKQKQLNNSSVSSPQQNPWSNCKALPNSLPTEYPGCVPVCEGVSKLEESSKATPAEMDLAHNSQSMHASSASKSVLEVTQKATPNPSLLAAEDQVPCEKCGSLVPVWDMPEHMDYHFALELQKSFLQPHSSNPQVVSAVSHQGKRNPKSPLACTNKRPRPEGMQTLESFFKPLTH
Procedure, shortened: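 Fluorescent replication assay: 50 nM final substrate added after a 15 min room-temperature compound preincubation with 10 nM enzyme. Signal taken at 0 min and again at 10 min.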
% is scaled to controls: 0 for no effect and ±100 for the full control effect; potency is read from the fitted curve at half-maximal effect; tags tell the direction and shape of the fitted curve.

SMILES	Potency	activity change, negative = inhibition
O=C(COc1ncnc2cc([N+](=O)[O-])ccc12)NCc1ccc2c(c1)OCO2	inconclusive: 10 µM [inhibitor, partial curve, poor fit]	–
CC(CCC(=O)NN)C1CCC2C3CCC4CC(O)CCC4(C)C3CCC12C (centres undefined)	inconclusive: 25.1 µM [inhibitor, single point]	–
O=C(NC1CCCCC1)c1c[nH]c2ccc(S(=O)(=O)Nc3ccccc3F)cc2c1=O	inconclusive: 89.1 µM [inhibitor, single point]	–
COc1cc(NS(=O)(=O)c2ccc(N/C=C(\C=O)c3nc4cc(Cl)ccc4o3)cc2)nc(OC)n1	active: 31.6 µM	–
Cc1ccc(NS(=O)(=O)c2cc([N+](=O)[O-])ccc2NNC(=S)Nc2cccc(Cl)c2)c(C)c1	active: 39.8 µM	–
COc1ccc(-n2c(/C=C/c3cccc4ccccc34)nc3ccccc3c2=O)cc1Cl	–	inactive: -27.7%
CCc1ccc(N2C(=O)Cc3c2nc(N)c(C#N)c3N)cc1	inconclusive: 44.7 µM [inhibitor, partial curve, poor fit]	–
O=C(COc1ccc(Br)cc1)Nc1ccc(C(=O)Nc2ccccc2C(=O)O)cc1	inconclusive: 31.6 µM [inhibitor, full curve]	–
C=CCOc1ccc(/C=C\c2nc(O)c([N+](=O)[O-])c(=O)[nH]2)cc1OCC	active: 20 µM	–
Cc1cnc(C(=O)OCC(=O)c2csc(N3CCCCC3)n2)cn1	active: 25.1 µM	–
CCCCn1c(N)c(N(CC(C)C)C(=O)c2ccc(N3C(=O)c4ccccc4C3=O)cc2)c(=O)[nH]c1=O	inconclusive: 4.47 µM [inhibitor, partial curve]	–
O=C(CCC1CCCC1)Nc1ccccc1-c1ccccc1	–	inactive: -12.3%
CN1CCN(C(=O)c2cc3c(C(F)(F)F)nn(C)c3s2)CC1	inconclusive: 15.8 µM [inhibitor, partial curve, poor fit]	–
COc1ccc(/C=N/NC(=O)c2nc(-c3ccccc3)cc(-c3ccccc3)n2)cc1OC	inconclusive: 20 µM [inhibitor, partial curve]	–
CCCC(=O)NC(c1cccs1)c1cc([N+](=O)[O-])c2cccnc2c1O (centres undefined)	inconclusive: 50.1 µM [inhibitor, partial curve]	–
COc1cccc(/C=N/Nc2nc3ccccc3n3cnnc23)c1O	inconclusive: 35.5 µM [inhibitor, partial curve, poor fit]	–
Cc1nc2ccccc2c(=O)n1/N=C/c1ccc(O)c(O)c1O	active: 2.82 µM	–
Cc1ccc(-c2cc(C(=O)Nc3ccc(S(=O)(=O)Nc4ncccn4)cc3)c3ccccc3n2)cc1	inconclusive: 31.6 µM [inhibitor, single point]	–
COc1ccc(S(=O)(=O)N2CCCCCC2)cc1C(=O)N(C)Cc1ccc(C(C)(C)C)cc1	inconclusive: 56.2 µM [inhibitor, partial curve, poor fit]	–
Cc1nnc2ccc(-c3ccc(NS(=O)(=O)c4ccc(Cl)s4)cc3)nn12	inconclusive: 28.2 µM [inhibitor, full curve]	–
C=C(CCO)C1=CCN(S(=O)C(C)(C)C)[C@H]1CCO (some centres undefined)	–	inactive: -3.58%
Cc1nnc(SCc2nc(-c3ccc(Cl)cc3)no2)n1-c1ccc(F)cc1	–	inactive: -11.8%

SMILES	Potency	activity change, negative = inhibition
CCc1ccc2nc(N(CCCN(C)C)C(=O)c3ccc(S(=O)(=O)N(C)C4CCCCC4)cc3)sc2c1	–	inactive: -22.6%
C#CCOCCOCCOCCNc1nc(N2CCN(C(=O)CCCCCCCCCCNC(=O)[C@H](CCCCN)n3cc(C[C@@H](C)CC)nn3)CC2)nc(N2CCN(C(=O)CCCCCCCCCCNC(=O)[C@H](CCCN=C(N)N)n3cc(C[C@@H](C)CC)nn3)CC2)n1	active: 28.2 µM	–
N#Cc1c(SCC(=O)Nc2ccc(Cl)cc2Cl)sc2c(O)cc(=O)[nH]c12	active: 25.1 µM	–
CCc1cccc(NS(=O)(=O)c2cc(-c3cnc(C)o3)ccc2OC)c1	inconclusive: 89.1 µM [inhibitor, partial curve, poor fit]	–
COc1ccccc1/C=C/C(=O)NCC(=O)N/N=C/c1ccc2c(c1)OCO2	inconclusive: 50.1 µM [inhibitor, partial curve]	–
Cc1cccc(/C=C2/S/C(=N/N=C3\CC4CCC3(C)C4(C)C)NC2=O)c1 (centres undefined)	inconclusive: 3.16 µM [inhibitor, full curve, poor fit]	–
Cc1c(C(=O)N2CCN(c3ccccc3)CC2)oc2c(Cl)cccc12	–	inactive: -19.1%
O=C(NCc1ccccc1)c1ccc2c(c1)nc1n2CCOC1	–	inactive: 8.63%
CCOC(=O)c1c(NC(=O)CSc2nnc(-c3ccccc3C)n2C)sc(C(C)=O)c1C	active: 35.5 µM	–
Cc1cc(N)c2ccccc2[n+]1CCCCCCCCCCCCCC[n+]1c(C)cc(N)c2ccccc21	inconclusive: 39.8 µM [inhibitor, single point]	–
O=C(COC(=O)CCCc1nc2ccccc2s1)Nc1ncc(Cl)cc1Cl	inconclusive: 50.1 µM [inhibitor, partial curve]	–
CC(=O)Oc1cccc(N2C(=O)CC(Nc3ccc(N4CCOCC4)cc3)C2=O)c1 (centres undefined)	inconclusive: 15.8 µM [inhibitor, full curve, poor fit]	–
O=C(COc1ccc2c(-c3ccccc3)cc(=O)oc2c1)N[C@H](Cc1c[nH]c2ccccc12)C(=O)O	inconclusive: 15.8 µM [inhibitor, full curve, poor fit]	–
COc1ccc(-n2cc(-c3ccc4c(c3)OCO4)n(CC(=O)Nc3cccc(C)c3)c2=O)cc1	–	inactive: 8.1%
CCOCc1cnc(C)nc1NCC(=O)c1c(C)[nH]c2ccc(OC)cc12	–	inactive: -10.6%
COc1ccccc1CNC(=O)CSc1ccsc1[N+](=O)[O-]	–	inactive: -5.31%
COC(=O)CCSc1cc(NCCOC(C)=O)c([N+](=O)[O-])c2nonc12	inconclusive: 15.8 µM [inhibitor, full curve]	–
CCOC(=O)c1ccc(NC(=O)c2cc3c([nH]c2=O)CC(c2ccccc2)CC3=O)cc1 (centres undefined)	–	inactive: -4.31%
N#CCCn1cc(C=C(C#N)C#N)c(-c2ccc(-c3ccccc3)cc2)n1	inconclusive: 8.91 µM [inhibitor, full curve, poor fit]	–
O=C1N=c2ccccc2=C1c1sc(=S)n(NC(=O)c2cccc(O)c2)c1O	inconclusive: 89.1 µM [inhibitor, single point]	–
Cc1ccc(-c2cn(-c3ccccc3)c(=S)[nH]2)cc1C	–	inactive: -11.6%
COc1cc(CC(=O)OCC(=O)Nc2ncc(Cl)cc2Cl)cc(OC)c1OC	inconclusive: 12.6 µM [inhibitor, full curve, poor fit]	–

SMILES	Potency	activity change, negative = inhibition
C=CCN(CC=C)C(=O)c1ccc(OC2CCN(S(=O)(=O)N(C)C)CC2)cc1	inconclusive: 79.4 µM [inhibitor, partial curve, poor fit]	–
CCN(CC(=O)Nc1cccc(OC)c1)C(=O)c1ccncc1	inconclusive: 89.1 µM [inhibitor, partial curve, poor fit]	–
Cc1ccccc1CN1C(=O)c2ccccc2S(=O)c2ccc(C(=O)NCc3ccc4c(c3)OCO4)cc21 (centres undefined)	–	inactive: -3.14%
Cn1cccc1Cc1nnc(SCC(=O)NCc2ccco2)n1CCc1ccccc1	–	inactive: -29.4%
O=C(COC(=O)COc1ccc(Cl)cc1)Nc1ccc2c(c1)OCCO2	inconclusive: 89.1 µM [inhibitor, single point]	–
O=C(Nc1nnc(SCc2ccccc2Cl)s1)c1cccc([N+](=O)[O-])c1	inconclusive: 12.6 µM [inhibitor, partial curve, poor fit]	–
CCCCCCN1C[C@H](n2cc(COC(=O)c3ccccc3)nn2)[C@@H](O)C[C@@H]1c1ccc(C)cc1	inconclusive: 0.891 µM [inhibitor, partial curve, poor fit]	–
C/C=C/c1ccc(OCC(O)CN(C)Cc2ccc(SC)cc2)c(OC)c1 (centres undefined)	inconclusive: 79.4 µM [inhibitor, partial curve, poor fit]	–
CC(=O)Nc1c(C)nn(-c2ccccc2)c1N1CCC(C(=O)Nc2cccc(C(F)(F)F)c2)CC1	–	inactive: -5.47%
COc1ccc(CCNC(=O)Cn2c(=O)c3cccn3c3ccccc32)cc1OC	–	inactive: 7.22%
O=c1[nH]c2ccc([N+](=O)[O-])cc2nc1/C=C(\O)c1ccccc1	–	inactive: -12.4%
CN(C)c1ccc(/C=N/NC(=O)CCCO)cc1	inconclusive: 100 µM [inhibitor, single point]	–
COc1ccccc1N1CCN(C(=O)/C=C/c2ccc(C)cc2)CC1	inconclusive: 5.01 µM [inhibitor, full curve, poor fit]	–
CSc1ccc(C(c2c(C(=O)O)[nH]c3ccccc23)c2c(C(=O)O)[nH]c3ccccc23)cc1	active: 79.4 µM	–
COc1ccc(Cl)cc1-n1c(=S)sc2c(=O)[nH]c(SCC(=O)C(C)(C)C)nc21	inconclusive: 100 µM [inhibitor, partial curve, poor fit]	–
C(=C\c1ccccc1)/C=N/Nc1nc(N2CCOCC2)nc(N2CCOCC2)n1	inconclusive: 35.5 µM [inhibitor, partial curve, poor fit]	–
C[C@@H](NC(=O)c1ncn(C)c1C(=O)N[C@H](C)c1ccccc1)c1ccccc1	inconclusive: 22.4 µM [inhibitor, partial curve, poor fit]	–
COc1cccc(NC(=O)CN(C)C(=O)c2ccc(-c3cccc(C(F)(F)F)c3)o2)c1	inconclusive: 31.6 µM [inhibitor, partial curve, poor fit]	–
CCOC(=O)C1CCCN(C(=O)c2ccc(NC(=O)c3nsc4ccccc34)cc2)C1 (centres undefined)	–	inactive: -21%
COc1ccccc1N(CC(=O)N1CCN(Cc2ccccc2)CC1)S(=O)(=O)c1ccccc1	–	inactive: -21.4%
